Positions count from the first letter of the chain named. This is one part of the list.

First the molecules themselves.
T1: RBFOX1 RRM RbFoxmut (Fox-RRM*) (Homo sapiens, UniProt Q9NWB1 109-208, R118D;E147R;N151S;E152T)
T1 sequence: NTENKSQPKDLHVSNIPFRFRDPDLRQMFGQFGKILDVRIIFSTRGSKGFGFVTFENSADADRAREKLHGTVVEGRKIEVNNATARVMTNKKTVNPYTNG

B1: ACUAGUC (DNA:RNA)
RNA: GGGAGACCGGAAUUCAGAUUGUCCACUAGUCUUAAAUCCCGUCGUAGCCACCA
DNA 1: CAATCTGAATTCCGGTCTCCC
DNA 2: TGGTGGCTACGACGGGATT
B2: GGAUAGA (DNA:RNA)
RNA: GGGAGACCGGAAUUCAGAUUGUCCGGAUAGAUUAAAUCCCGUCGUAGCCACCA
DNA 1: CAATCTGAATTCCGGTCTCCC
DNA 2: TGGTGGCTACGACGGGATT
B3: GCACGUC (DNA:RNA)
RNA: B1 RNA with A25G, U27A, A28C
DNA 1: CAATCTGAATTCCGGTCTCCC
DNA 2: TGGTGGCTACGACGGGATT
B4: ACGUGUA (DNA:RNA)
RNA: B1 RNA with U27G, A28U, C31A
DNA 1: CAATCTGAATTCCGGTCTCCC
DNA 2: TGGTGGCTACGACGGGATT
B5: GAACCAU (DNA:RNA)
RNA: B2 RNA with G26A, U28C, A29C, G30A, A31U
DNA 1: CAATCTGAATTCCGGTCTCCC
DNA 2: TGGTGGCTACGACGGGATT
B6: GUUCAUC (DNA:RNA)
RNA: B1 RNA with A25G, C26U, A28C, G29A
DNA 1: CAATCTGAATTCCGGTCTCCC
DNA 2: TGGTGGCTACGACGGGATT
B7: ACACAUC (DNA:RNA)
RNA: B1 RNA with U27A, A28C, G29A
DNA 1: CAATCTGAATTCCGGTCTCCC
DNA 2: TGGTGGCTACGACGGGATT
B8: UAUGAAC (DNA:RNA)
RNA: B1 RNA with A25U, C26A, A28G, G29A, U30A
DNA 1: CAATCTGAATTCCGGTCTCCC
DNA 2: TGGTGGCTACGACGGGATT
B9: GACGCCG (DNA:RNA)
RNA: B2 RNA with G26A, A27C, U28G, A29C, G30C, A31G
DNA 1: CAATCTGAATTCCGGTCTCCC
DNA 2: TGGTGGCTACGACGGGATT
B10: CUUAGUA (DNA:RNA)
RNA: B1 RNA with A25C, C26U, C31A
DNA 1: CAATCTGAATTCCGGTCTCCC
DNA 2: TGGTGGCTACGACGGGATT
B11: ACUGCUA (DNA:RNA)
RNA: B1 RNA with A28G, G29C, C31A
DNA 1: CAATCTGAATTCCGGTCTCCC
DNA 2: TGGTGGCTACGACGGGATT
B12: AGUGUCU (DNA:RNA)
RNA: B1 RNA with C26G, A28G, G29U, U30C, C31U
DNA 1: CAATCTGAATTCCGGTCTCCC
DNA 2: TGGTGGCTACGACGGGATT
B13: CAUCCGU (DNA:RNA)
RNA: B1 RNA with A25C, C26A, A28C, G29C, U30G, C31U
DNA 1: CAATCTGAATTCCGGTCTCCC
DNA 2: TGGTGGCTACGACGGGATT
B14: AUCUUAG (DNA:RNA)
RNA: B1 RNA with C26U, U27C, A28U, G29U, U30A, C31G
DNA 1: CAATCTGAATTCCGGTCTCCC
DNA 2: TGGTGGCTACGACGGGATT
B15: GAAGUGA (DNA:RNA)
RNA: B2 RNA with G26A, U28G, A29U
DNA 1: CAATCTGAATTCCGGTCTCCC
DNA 2: TGGTGGCTACGACGGGATT
B16: CUUCGGG (DNA:RNA)
RNA: B1 RNA with A25C, C26U, A28C, U30G, C31G
DNA 1: CAATCTGAATTCCGGTCTCCC
DNA 2: TGGTGGCTACGACGGGATT
B17: GUUAGCA (DNA:RNA)
RNA: B1 RNA with A25G, C26U, U30C, C31A
DNA 1: CAATCTGAATTCCGGTCTCCC
DNA 2: TGGTGGCTACGACGGGATT
B18: CUCAACG (DNA:RNA)
RNA: B1 RNA with A25C, C26U, U27C, G29A, U30C, C31G
DNA 1: CAATCTGAATTCCGGTCTCCC
DNA 2: TGGTGGCTACGACGGGATT
B19: AUUCGCU (DNA:RNA)
RNA: B1 RNA with C26U, A28C, U30C, C31U
DNA 1: CAATCTGAATTCCGGTCTCCC
DNA 2: TGGTGGCTACGACGGGATT
B20: CUUAGGA (DNA:RNA)
RNA: B1 RNA with A25C, C26U, U30G, C31A
DNA 1: CAATCTGAATTCCGGTCTCCC
DNA 2: TGGTGGCTACGACGGGATT

The experiment deals with T1, RBFOX1 RRM RbFoxmut (Fox-RRM*). The experiment in a line: EMSA; HiTS-Eq, 1 nM pool, 10 min; buffer printed only for the single-RNA assays: 10 mM Tris pH 7.5, 150 mM NaCl, 3.4 mM EDTA, 0.001% NP-40, 30 C. To be noted: tags: His6 N-terminal (pET28a); label: 5' 32P. The method, boiled down: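 Purified RbFox RRM (wild type or mutant) was equilibrated for 10 min in 50 µL with 1 nM of a 5′-radiolabelled pool of RNA with 7 randomized nucleotides, its flanks annealed to DNA oligonucleotides, across increasing protein concentrations. Free RNA was separated by 8% native PAGE, excised, reverse-transcribed, PCR-barcoded and sequenced on an Illumina HiSeq 2500. Relative association constants came from read-count changes of each variant against the control reaction, normalised to the cognate motif.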
(Mobility shift assays separate free from complexed probe on a gel.)
For B1, the binding signal was 0.0862 KA relative to UGCAUGU. For B2 the value was 0.119 KA relative to UGCAUGU. For B3 the value was 0.117 KA relative to UGCAUGU; for B4, 0.276 KA relative to UGCAUGU. For B5 the value was 0.0693 KA relative to UGCAUGU; for B6, 0.0631 KA relative to UGCAUGU; for B7, 0.07 KA relative to UGCAUGU. Turning to B8, the binding signal is 0.0597 KA relative to UGCAUGU. The result for B9 reads 0.0827 KA relative to UGCAUGU.

In the case of B10, the binding signal is 0.162 KA relative to UGCAUGU.

On to B11, for which the binding signal was 0.0993 KA relative to UGCAUGU. B12: the binding signal was 0.137 KA relative to UGCAUGU. For B13 the value was 0.103 KA relative to UGCAUGU. For the molecule B14, the binding signal is 0.153 KA relative to UGCAUGU. As for B15, the binding signal was 0.0795 KA relative to UGCAUGU. The result for B16 reads 0.0971 KA relative to UGCAUGU; that for B17, 0.18 KA relative to UGCAUGU. For B18 the value was 0.107 KA relative to UGCAUGU; for B19, 0.132 KA relative to UGCAUGU; for B20, 0.069 KA relative to UGCAUGU.
